{"source": "the supplement of paper PMC8728848", "binders": {"B1": {"name": "PX9961T-pdi-555-33-555 (Parabacteroides distasonis) (protein)", "chain": "FDEETAFQSPTLVYVNTVASLYNNMFKIMGNDRHVYDLNTFSSDEAMLPCRIGDWEDGGLWQNIFLHRWGTMNDLTKNSWDFLYEQIGKCNQSVDKLQAFAEEQPDVEYFKVYLEEVRAVRAFFYYELLDLFARVPLVTSSTTPMSEVKQSERSVVFNFVRSELEEALPYLSDNRSNQKGEYYGRITKPVAYMILAKLALNAEVYADDNWTDGNRPAGKNIKFTVDGKEMNAWEATIAYVDKLEALGYKLQGNFSENFAVANETSVENIFTVPMDPVAYPDAKDYNLVRTRHYDHATAYGQSGWNGSCATVKAMNVFKFGTADEDPRCKLTYFTGEVTGPDGKTIYTEWDGQKVPLKYEPNAPKVYMDASDGLLVKTAGARMAKYEFDQNAQDGGNLHGNDCVIFRFADALLMKAEAKIRLGQNGDDEVNQVRNRVGAKPLQNVTLDTLLDERMLELAWEGVRRQDLIRFGKFTEATVDRYVGVKHFASSLDYQEDKTGYTTVFSIYADILSLNPNLTQNPGY"}}, "assay_in_all_cases": "glycan array binding signal (z-score within array); higher = stronger binding", "settings_in_all_cases": "glycan notation: IUPAC condensed, linker removed", "key": {"[1]": {"target": "Gal(b1-3)GalNAc(b1-3)Gal(a1-4)Gal(b1-4)Glc", "summary_of_the_method": "(§1)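 The binding signal is a Z-score computed within each array and averaged over linkers. Arrays of the same protein sequence at different concentrations or buffers were also averaged together. Data originate from 3228 arrays in the Consortium for Functional Glycomics database, kept only where the protein sequence was available.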"}, "[2]": {"target": "Gal(b1-3)GalNAc(b1-4)Gal(b1-4)Glc", "summary_of_the_method": "as §1"}, "[3]": {"target": "Gal(b1-3)GalNAc(b1-4)[Neu5Ac(a2-3)]Gal(b1-4)Glc", "summary_of_the_method": "as §1"}, "Gal(b1-3)GlcNAc": {"target": "Gal(b1-3)GlcNAc", "summary_of_the_method": "as §1"}, "[4]": {"target": "Gal(b1-3)GlcNAc(a1-3)Gal(b1-4)GlcNAc", "summary_of_the_method": "as §1"}, "[5]": {"target": "Gal(b1-3)GlcNAc(a1-6)Gal(b1-4)GlcNAc", "summary_of_the_method": "as §1"}, "Gal(b1-3)GlcNAc(b1-2)Man": {"target": "Gal(b1-3)GlcNAc(b1-2)Man", "summary_of_the_method": "as §1"}, "[6]": {"target": "Gal(b1-3)GlcNAc(b1-2)Man(a1-3)[Gal(b1-3)GlcNAc(b1-2)Man(a1-6)]Man(b1-4)GlcNAc(b1-4)GlcNAc", "summary_of_the_method": "as §1"}, "[7]": {"target": "Gal(b1-3)GlcNAc(b1-2)Man(a1-3)[Gal(b1-3)GlcNAc(b1-2)Man(a1-6)]Man(b1-4)GlcNAc(b1-4)[Fuc(a1-6)]GlcNAc", "summary_of_the_method": "as §1"}, "[8]": {"target": "Gal(b1-3)GlcNAc(b1-2)Man(a1-3)[GlcNAc(b1-4)][Gal(b1-3)GlcNAc(b1-2)Man(a1-6)]Man(b1-4)GlcNAc(b1-4)GlcNAc", "summary_of_the_method": "as §1"}, "[9]": {"target": "Gal(b1-3)GlcNAc(b1-2)[Gal(b1-3)GlcNAc(b1-6)]Man(a1-6)[Gal(b1-3)GlcNAc(b1-2)Man(a1-3)]Man(b1-4)GlcNAc(b1-4)GlcNAc", "summary_of_the_method": "as §1"}, "[10]": {"target": "Gal(b1-3)GlcNAc(b1-3)Gal(b1-3)GlcNAc", "summary_of_the_method": "as §1"}, "[11]": {"target": "Gal(b1-3)GlcNAc(b1-3)Gal(b1-4)Glc", "summary_of_the_method": "as §1"}, "[12]": {"target": "Gal(b1-3)GlcNAc(b1-3)Gal(b1-4)GlcNAc", "summary_of_the_method": "as §1"}, "[13]": {"target": "Gal(b1-3)GlcNAc(b1-3)Gal(b1-4)GlcNAc(b1-2)Man(a1-3)[Gal(b1-3)GlcNAc(b1-3)Gal(b1-4)GlcNAc(b1-2)Man(a1-6)]Man(b1-4)GlcNAc(b1-4)GlcNAc", "summary_of_the_method": "as §1"}, "[14]": {"target": "Gal(b1-3)GlcNAc(b1-3)Gal(b1-4)GlcNAc(b1-2)[Gal(b1-3)GlcNAc(b1-3)Gal(b1-4)GlcNAc(b1-6)]Man(a1-6)[Gal(b1-3)GlcNAc(b1-3)Gal(b1-4)GlcNAc(b1-2)Man(a1-3)]Man(b1-4)GlcNAc(b1-4)[Fuc(a1-6)]GlcNAc", "summary_of_the_method": "as §1"}, "[15]": {"target": "Gal(b1-3)GlcNAc(b1-3)Gal(b1-4)GlcNAc(b1-3)Gal(b1-4)GlcNAc(b1-2)[Gal(b1-3)GlcNAc(b1-3)Gal(b1-4)GlcNAc(b1-3)Gal(b1-4)GlcNAc(b1-6)]Man(a1-6)[Gal(b1-3)GlcNAc(b1-3)Gal(b1-4)GlcNAc(b1-3)Gal(b1-4)GlcNAc(b1-2)Man(a1-3)]Man(b1-4)GlcNAc(b1-4)[Fuc(a1-6)]GlcNAc", "summary_of_the_method": "as §1"}, "[16]": {"target": "Gal(b1-3)GlcNAc(b1-3)Gal(b1-4)GlcNAc(b1-6)[Gal(b1-3)GlcNAc(b1-3)]Gal(b1-4)Glc", "summary_of_the_method": "as §1"}, "[17]": {"target": "Gal(b1-3)GlcNAc(b1-3)Gal(b1-4)[Fuc(a1-3)]GlcNAc", "summary_of_the_method": "as §1"}, "[18]": {"target": "Gal(b1-3)GlcNAc(b1-3)Gal(b1-4)[Fuc(a1-3)]GlcNAc(b1-6)[Gal(b1-3)GlcNAc(b1-3)]Gal(b1-4)Glc", "summary_of_the_method": "as §1"}, "[19]": {"target": "Gal(b1-3)GlcNAc(b1-3)GalNAc", "summary_of_the_method": "as §1"}, "[20]": {"target": "Gal(b1-3)GlcNAc(b1-6)Gal(b1-4)GlcNAc", "summary_of_the_method": "as §1"}, "[21]": {"target": "Gal(b1-3)GlcNAc(b1-6)GalNAc", "summary_of_the_method": "as §1"}, "[22]": {"target": "Gal(b1-3)GlcNAc(b1-6)[Gal(b1-3)]GalNAc", "summary_of_the_method": "as §1"}, "Gal(b1-3)GlcNAc6S": {"target": "Gal(b1-3)GlcNAc6S", "summary_of_the_method": "as §1"}, "[23]": {"target": "Gal(b1-3)[Fuc(a1-4)]GlcNAc", "summary_of_the_method": "as §1"}, "[24]": {"target": "Gal(b1-3)[Fuc(a1-4)]GlcNAc(b1-2)Man", "summary_of_the_method": "as §1"}, "[25]": {"target": "Gal(b1-3)[Fuc(a1-4)]GlcNAc(b1-2)Man(a1-3)[Gal(b1-3)[Fuc(a1-4)]GlcNAc(b1-2)Man(a1-6)]Man(b1-4)GlcNAc(b1-4)[Fuc(a1-6)]GlcNAc", "summary_of_the_method": "as §1"}, "[26]": {"target": "Gal(b1-3)[Fuc(a1-4)]GlcNAc(b1-3)Gal(b1-3)[Fuc(a1-4)]GlcNAc", "summary_of_the_method": "as §1"}, "[27]": {"target": "Gal(b1-3)[Fuc(a1-4)]GlcNAc(b1-3)Gal(b1-4)[Fuc(a1-3)]GlcNAc", "summary_of_the_method": "as §1"}, "[28]": {"target": "Gal(b1-3)[Fuc(a1-4)]GlcNAc(b1-6)GalNAc", "summary_of_the_method": "as §1"}, "[29]": {"target": "Gal(b1-3)[GlcNAc(b1-6)]GalNAc", "summary_of_the_method": "as §1"}, "[30]": {"target": "Gal(b1-3)[Neu5Ac(a2-6)]GalNAc", "summary_of_the_method": "as §1"}, "[31]": {"target": "Gal(b1-3)[Neu5Ac(a2-6)]GlcNAc(b1-4)Gal(b1-4)Glc", "summary_of_the_method": "as §1"}, "[32]": {"target": "Gal(b1-3)[Neu5Ac(b2-6)]GalNAc", "summary_of_the_method": "as §1"}, "Gal(b1-4)Gal": {"target": "Gal(b1-4)Gal", "summary_of_the_method": "as §1"}, "[33]": {"target": "Gal(b1-4)GalNAc(a1-3)[Fuc(a1-2)]Gal(b1-4)GlcNAc", "summary_of_the_method": "as §1"}, "[34]": {"target": "Gal(b1-4)GalNAc(b1-3)[Fuc(a1-2)]Gal(b1-4)GlcNAc", "summary_of_the_method": "as §1"}}, "note": "This is one part of the list.", "data": [{"binder": "B1", "values": [{"measurement": "glycan array binding signal (z-score)", "setting": "[1]", "value": -0.576}, {"measurement": "glycan array binding signal (z-score)", "setting": "[2]", "value": 0.247}, {"measurement": "glycan array binding signal (z-score)", "setting": "[3]", "value": -0.841}, {"measurement": "glycan array binding signal (z-score)", "setting": "Gal(b1-3)GlcNAc", "value": -0.225}, {"measurement": "glycan array binding signal (z-score)", "setting": "[4]", "value": 0.119}, {"measurement": "glycan array binding signal (z-score)", "setting": "[5]", "value": -0.403}, {"measurement": "glycan array binding signal (z-score)", "setting": "Gal(b1-3)GlcNAc(b1-2)Man", "value": 0.661}, {"measurement": "glycan array binding signal (z-score)", "setting": "[6]", "value": -0.248}, {"measurement": "glycan array binding signal (z-score)", "setting": "[7]", "value": 0.13}, {"measurement": "glycan array binding signal (z-score)", "setting": "[8]", "value": 0.011}, {"measurement": "glycan array binding signal (z-score)", "setting": "[9]", "value": 0.534}, {"measurement": "glycan array binding signal (z-score)", "setting": "[10]", "value": -0.315}, {"measurement": "glycan array binding signal (z-score)", "setting": "[11]", "value": 0.245}, {"measurement": "glycan array binding signal (z-score)", "setting": "[12]", "value": -0.164}, {"measurement": "glycan array binding signal (z-score)", "setting": "[13]", "value": 0.42}, {"measurement": "glycan array binding signal (z-score)", "setting": "[14]", "value": -0.542}, {"measurement": "glycan array binding signal (z-score)", "setting": "[15]", "value": -0.499}, {"measurement": "glycan array binding signal (z-score)", "setting": "[16]", "value": 0.044}, {"measurement": "glycan array binding signal (z-score)", "setting": "[17]", "value": -0.138}, {"measurement": "glycan array binding signal (z-score)", "setting": "[18]", "value": -0.354}, {"measurement": "glycan array binding signal (z-score)", "setting": "[19]", "value": -0.515}, {"measurement": "glycan array binding signal (z-score)", "setting": "[20]", "value": 0.429}, {"measurement": "glycan array binding signal (z-score)", "setting": "[21]", "value": -0.018}, {"measurement": "glycan array binding signal (z-score)", "setting": "[22]", "value": -0.08}, {"measurement": "glycan array binding signal (z-score)", "setting": "Gal(b1-3)GlcNAc6S", "value": 0.453}, {"measurement": "glycan array binding signal (z-score)", "setting": "[23]", "value": 0.33}, {"measurement": "glycan array binding signal (z-score)", "setting": "[24]", "value": 0.763}, {"measurement": "glycan array binding signal (z-score)", "setting": "[25]", "value": -0.151}, {"measurement": "glycan array binding signal (z-score)", "setting": "[26]", "value": 0.408}, {"measurement": "glycan array binding signal (z-score)", "setting": "[27]", "value": -0.053}, {"measurement": "glycan array binding signal (z-score)", "setting": "[28]", "value": 0.004}, {"measurement": "glycan array binding signal (z-score)", "setting": "[29]", "value": -0.45}, {"measurement": "glycan array binding signal (z-score)", "setting": "[30]", "value": 0.315}, {"measurement": "glycan array binding signal (z-score)", "setting": "[31]", "value": -0.231}, {"measurement": "glycan array binding signal (z-score)", "setting": "[32]", "value": -0.426}, {"measurement": "glycan array binding signal (z-score)", "setting": "Gal(b1-4)Gal", "value": 0.143}, {"measurement": "glycan array binding signal (z-score)", "setting": "[33]", "value": -0.527}, {"measurement": "glycan array binding signal (z-score)", "setting": "[34]", "value": -0.157}]}]}
